# According to paper PMC10367076, “Mechanistic and Structural Insights into a Divergent PLP-Dependent L-Enduracididine Cyclase from a Toxic Cyanobacterium” (ACS Catalysis, 2023):
# Target: GntC (Sphaerospermopsis torques-reginae, UniProt A0ABX8WVP5)
# Settings: covalent; internal aldimine with K219
structure (smiles),measurement,value
Cc1ncc(COP(=O)(O)O)c(C=O)c1O [pyridoxal-5′-phosphate],"X-ray crystal structure, 2.10 Å",we obtained crystal structures of GntC with bound PLP (PDB ID: 8FFT)
